# The other results are listed elsewhere or left out.
# Experiments:
# Experiment in all cases: glycan array binding signal (z-score within array); higher = stronger binding
# Settings in all cases: glycan notation: IUPAC condensed, linker removed
# [1] = target: Glc(b1-2)Glc(b1-2)Glc(b1-2)Glc(b1-2)Glc(b1-2)Glc(b1-2)Glc(b1-2)Glc(b1-2)Glc(b1-2)Glc(b1-2)Glc
# Outline: (§1)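 Glycan array data were curated from 3228 arrays in the Consortium for Functional Glycomics database and kept only where the protein sequence was available. Glycan names were converted to IUPAC-condensed notation, and columns mapping to the same glycan were averaged. The binding signal is a within-array Z-score, averaged across arrays of the same protein sequence at different concentrations or buffers and across linkers. Negative Z-scores can be read as non-binding.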
# [2] = target: Glc(b1-2)Glc(b1-2)Glc(b1-2)Glc(b1-2)Glc(b1-2)Glc(b1-2)Glc(b1-2)Glc(b1-2)Glc(b1-2)Glc(b1-2)Glc(b1-2)Glc
# Outline: as §1
# [3] = target: Glc(b1-2)Glc(b1-2)Glc(b1-2)Glc(b1-2)Glc(b1-2)Glc(b1-2)Glc(b1-2)Glc(b1-2)Glc(b1-2)Glc(b1-2)Glc(b1-2)Glc(b1-2)Glc
# Outline: as §1
# Glc(b1-3)Glc = target: Glc(b1-3)Glc
# Outline: as §1
# Glc(b1-3)Glc(b1-3)Glc = target: Glc(b1-3)Glc(b1-3)Glc
# Outline: as §1
# [4] = target: Glc(b1-3)Glc(b1-3)Glc(b1-3)Glc
# Outline: as §1
# [5] = target: Glc(b1-3)Glc(b1-3)Glc(b1-3)Glc(b1-3)Glc
# Outline: as §1
# [6] = target: Glc(b1-3)Glc(b1-3)Glc(b1-3)Glc(b1-3)Glc(b1-3)Glc
# Outline: as §1
# [7] = target: Glc(b1-3)Glc(b1-3)Glc(b1-3)Glc(b1-3)Glc(b1-3)Glc(b1-3)Glc
# Outline: as §1
# [8] = target: Glc(b1-3)Glc(b1-3)Glc(b1-3)Glc(b1-3)Glc(b1-3)Glc(b1-3)Glc(b1-3)Glc
# Outline: as §1
# [9] = target: Glc(b1-3)Glc(b1-3)Glc(b1-3)Glc(b1-3)Glc(b1-3)Glc(b1-3)Glc(b1-3)Glc(b1-3)Glc
# Outline: as §1
# [10] = target: Glc(b1-3)Glc(b1-3)Glc(b1-3)Glc(b1-3)Glc(b1-3)Glc(b1-3)Glc(b1-3)Glc(b1-3)Glc(b1-3)Glc
# Outline: as §1
# [11] = target: Glc(b1-3)Glc(b1-3)Glc(b1-3)Glc(b1-3)Glc(b1-3)Glc(b1-3)Glc(b1-3)Glc(b1-3)Glc(b1-3)Glc(b1-3)Glc
# Outline: as §1
# [12] = target: Glc(b1-3)Glc(b1-3)Glc(b1-3)Glc(b1-3)Glc(b1-3)Glc(b1-3)Glc(b1-3)Glc(b1-3)Glc(b1-3)Glc(b1-3)Glc(b1-3)Glc
# Outline: as §1
# [13] = target: Glc(b1-3)Glc(b1-3)Glc(b1-3)Glc(b1-3)Glc(b1-3)Glc(b1-3)Glc(b1-3)Glc(b1-3)Glc(b1-3)Glc(b1-3)Glc(b1-3)Glc(b1-3)Glc
# Outline: as §1
# [14] = target: Glc(b1-3)Glc(b1-3)Glc(b1-3)Glc(b1-3)Glc(b1-3)Glc(b1-3)Glc(b1-3)[Glc(b1-6)]Glc(b1-3)Glc
# Outline: as §1
# [15] = target: Glc(b1-3)Glc(b1-3)Glc(b1-3)Glc(b1-3)Glc(b1-3)Glc(b1-3)[Glc(b1-6)]Glc(b1-3)Glc(b1-3)Glc
# Outline: as §1
# [16] = target: Glc(b1-3)Glc(b1-3)Glc(b1-3)Glc(b1-3)[Glc(b1-6)]Glc(b1-3)Glc(b1-3)Glc(b1-3)Glc(b1-3)Glc
# Outline: as §1
# [17] = target: Glc(b1-3)Glc(b1-3)Glc(b1-3)[Glc(b1-6)]Glc(b1-3)Glc(b1-3)Glc(b1-3)Glc(b1-3)[Glc(b1-6)]Glc(b1-3)Glc
# Outline: as §1
# [18] = target: Glc(b1-3)Glc(b1-3)[Glc(b1-6)]Glc(b1-3)Glc(b1-3)Glc(b1-3)Glc(b1-3)Glc(b1-3)Glc(b1-3)Glc
# Outline: as §1
# Glc(b1-3)Glc(b1-4)Glc = target: Glc(b1-3)Glc(b1-4)Glc
# Outline: as §1
# [19] = target: Glc(b1-3)Glc(b1-4)Glc(b1-4)Glc
# Outline: as §1
# [20] = target: Glc(b1-3)Glc(b1-4)Glc(b1-6)Glc(b1-4)Glc
# Outline: as §1
# [21] = target: Glc(b1-3)[Glc(b1-6)]Glc(a1-3)Glc(b1-3)[Glc(b1-6)]Glc
# Outline: as §1
# [22] = target: Glc(b1-3)[Glc(b1-6)]Glc(b1-3)Glc(b1-3)Glc(b1-3)Glc(b1-3)Glc(b1-3)Glc(b1-3)Glc
# Outline: as §1
# Glc(b1-4)Glc = target: Glc(b1-4)Glc
# Outline: as §1
# Glc(b1-4)Glc(b1-3)Glc = target: Glc(b1-4)Glc(b1-3)Glc
# Outline: as §1
# [23] = target: Glc(b1-4)Glc(b1-3)Glc(b1-4)Glc
# Outline: as §1
# Glc(b1-4)Glc(b1-4)Glc = target: Glc(b1-4)Glc(b1-4)Glc
# Outline: as §1
binder,measurement,setting,value
"laminarinase (Bacillus halodurans), Q9KBL8 (protein) EETIELEGEVIPARLLSTKVKALNYDDYHNVLIDRCVEGGESIRGLGDGSWIAFHDINLEQPTNLLTVRAANENKQAVLEIRADRVDGPLVSQSVIPPTGGLQAWTTVTAQVNGETSEIRDLYLVFKGEFQLSWFSFS",glycan array binding signal (z-score),[1],1.91
same,glycan array binding signal (z-score),[2],1.37
same,glycan array binding signal (z-score),[3],1.96
same,glycan array binding signal (z-score),Glc(b1-3)Glc,-0.627
same,glycan array binding signal (z-score),Glc(b1-3)Glc(b1-3)Glc,-0.536
same,glycan array binding signal (z-score),[4],0.421
same,glycan array binding signal (z-score),[5],0.748
same,glycan array binding signal (z-score),[6],1.23
same,glycan array binding signal (z-score),[7],1.12
same,glycan array binding signal (z-score),[8],2.39
same,glycan array binding signal (z-score),[9],1.82
same,glycan array binding signal (z-score),[10],2.13
same,glycan array binding signal (z-score),[11],2.35
same,glycan array binding signal (z-score),[12],2.38
same,glycan array binding signal (z-score),[13],2.46
same,glycan array binding signal (z-score),[14],2.1
same,glycan array binding signal (z-score),[15],1.45
same,glycan array binding signal (z-score),[16],1.97
same,glycan array binding signal (z-score),[17],1.34
same,glycan array binding signal (z-score),[18],2.85
same,glycan array binding signal (z-score),Glc(b1-3)Glc(b1-4)Glc,-0.331
same,glycan array binding signal (z-score),[19],-0.204
same,glycan array binding signal (z-score),[20],0.425
same,glycan array binding signal (z-score),[21],1.94
same,glycan array binding signal (z-score),[22],0.855
same,glycan array binding signal (z-score),Glc(b1-4)Glc,-0.583
same,glycan array binding signal (z-score),Glc(b1-4)Glc(b1-3)Glc,-0.524
same,glycan array binding signal (z-score),[23],-0.363
same,glycan array binding signal (z-score),Glc(b1-4)Glc(b1-4)Glc,-0.573
